Measured values as given in PubChem BioAssay AID686979 (National Center for Advancing Translational Sciences (NCATS), 2013).
In all, about 420,000 compounds went through this assay and about 50,000 (12%) were called active. This list was built around the results that the source calls inconclusive (neither active nor inactive); the mix of calls is not that of the screen. Calls follow the shape of the dose curve; as a rule, active = well fitted inhibition curve with a large enough effect; inconclusive = small, poorly fitted or top-dose-only effect; inactive = flat fitted curve, though single readings scatter. Potencies of inconclusive entries are left out as doubtful fits.

Assay: qHTS for Inhibitors of human tyrosyl-DNA phosphodiesterase 1 (TDP1): qHTS in cells in presence of CPT; also: nearly all actives have a fitted effect of over 55% in size
Details: chicken DT40 Tdp1-/-;hTDP1 cells + 20 nM CPT, ATP luminescence, 48 h; series mostly up to 46.2 µM
Procedure, shortened: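 Cell growth measured by CellTiter-Glo luminescence after a minimum 48 h, 37 C compound exposure with 20 nM CPT in Tdp1-knockout DT40 cells stably expressing hTDP1, seeded 400/well; qHTS titration format.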
Potency is read from the fitted curve at half-maximal effect; tags tell the direction and shape of the fitted curve.

SMILES	Potency
CCN(CC)CCNC(=O)C(=O)NCC1OCCN1S(=O)(=O)c1ccc([N+](=O)[O-])cc1 (centres undefined)	inconclusive [inhibitor, single point]
CCc1cc2cc(C)ccc2nc1SCC(=O)NC1CCCC1	inconclusive [inhibitor, single point]
COC(=O)CCCCCNC(=S)Nc1ccc2[nH]c(=O)[nH]c2c1	inactive
CCC(=O)N1CCN(c2ccc(NC(=O)c3ccc(N4CCOCC4)c([N+](=O)[O-])c3)cc2)CC1	inconclusive [inhibitor, single point]
CN1C(=O)NC(NC(=O)C2CCCCC2)(C(F)(F)F)C1=O (centres undefined)	inactive
COc1ccc(CCC(=O)OCC(=O)Nc2sccc2C#N)cc1	inactive
CCOc1ccccc1N1CCN(Cc2ccc(Br)s2)CC1	inconclusive [inhibitor, single point]
COc1ccc(OCCNC(=O)c2ccc3nc(C)c(N(C)C(=O)CCc4ccccc4)n3c2)cc1	active: 23.1 µM
Fc1ccc(NC(=S)Nc2cccc3cnccc23)cc1	inactive
COc1ccc(OC)c(/C=N/NC(=O)c2cccc3ccccc23)c1	inactive
CCN(CC)C(C)C(=O)NCC1(c2ccccc2)CCOCC1 (centres undefined)	inactive
CCC(C(=O)OC)(C(=O)OC)c1ccc([N+](=O)[O-])cc1	inactive
CCOc1ccc(N(C)S(=O)(=O)c2ccc(C)c(C(=O)OCC(=O)c3c[nH]c4ccccc34)c2)cc1	inactive
COc1ccc(Nc2ncnc3ccc(Br)cc23)cc1OC	active: 18.4 µM
COCCNc1nc(-c2ccccc2C(F)(F)F)nc2ccccc12	inactive
CC1Cc2nc(SCC(=O)Nc3ccc4c(c3)OCO4)n(Cc3ccccc3)c(=O)c2S1 (centres undefined)	active: 16.4 µM
Cc1ccc(C)c(N2CCN(CCCNC(=O)CCn3c(=O)c4cccn4c4cccnc43)CC2)c1	inconclusive [inhibitor, single point]
COc1ccc(OCC(=O)Nc2cccc(-c3nc4ccccc4s3)c2C)cc1	inconclusive [inhibitor, single point]
CCOC(=O)C1=C(CSCc2ccccc2)NC(=O)NC1c1cc(C)ccc1C (centres undefined)	inconclusive [inhibitor, single point]
COc1ccccc1OCC(=O)Nc1nc(-c2ccc(Br)cc2)ns1	inactive
O=C(NCCCNC(=O)c1cccnc1)c1ccc(Cl)cc1	inactive
Fc1cc(F)c2nc(N3CCCC3)sc2c1	inactive
Cc1nc(N2CCCC2)ncc1C(=O)Nc1ccc(F)cc1F	inactive
COc1ccc(/C=N\NC(=O)c2ccccc2)cc1COc1ccccc1	inconclusive [inhibitor, single point]
